{"source": "the supplement of paper PMC4604168 (melanoma cell lines)", "note": "The other results are listed elsewhere or left out. Many values rest on one well or one pass, so single values are uncertain.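 Further: cell number obtained by counting DAPI-stained nuclei in high-throughput microscope images with image analysis software, screen run in 1,536-well plates.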", "data": [{"system": "COLO792", "assay": "cell count relative to DMSO control; melanoma cells; higher = more viable cells", "conditions": "library dose: low library concentration; 72 h", "units": {"cell count": "%"}, "values": [{"smiles": "CN(c1ncccc1CNc1nc(Nc2ccc3c(c2)CC(=O)N3)ncc1C(F)(F)F)S(C)(=O)=O", "note": "+ O=S(=O)(c1ccccc1)N(CC(F)(F)F)c1ccc(C(O)(C(F)(F)F)C(F)(F)F)cc1 [T0901317] (first compound 0.08 µM, partner dose 1.4 µM)", "cell count": 81.3}, {"smiles": "CCCS(=O)(=O)Nc1ccc(F)c(C(=O)c2c[nH]c3ncc(Cl)cc23)c1F", "note": "+ O=C1NC(=O)/C(=C/c2ccc(-c3ccc(F)cc3O)o2)S1 [AS252424] (first compound 0.08 µM, partner dose 1 µM)", "cell count": 98.5}, {"smiles": "NC1(c2ccc(-c3nc4ccn5c(=O)[nH]nc5c4cc3-c3ccccc3)cc2)CCC1", "note": "+ COc1cc2ncnc(Nc3ccc(Oc4ccccc4)cc3)c2cc1OC [SrcI1] (first compound 0.4 µM, partner dose 2 µM)", "cell count": 60.4}, {"smiles": "C=C(c1ccc(C(=O)O)cc1)c1cc2c(cc1C)C(C)(C)CCC2(C)C", "note": "[Bexarotene] + COc1cc2ncnc(Nc3ccc(Oc4ccccc4)cc3)c2cc1OC [SrcI1] (first compound 2 µM, partner dose 2 µM)", "cell count": 82.5}, {"smiles": "C=C(c1ccc(C(=O)O)cc1)c1cc2c(cc1C)C(C)(C)CCC2(C)C", "note": "[Bexarotene] + O=S(=O)(c1ccccc1)N(CC(F)(F)F)c1ccc(C(O)(C(F)(F)F)C(F)(F)F)cc1 [T0901317] (first compound 2 µM, partner dose 1.4 µM)", "cell count": 111}, {"smiles": "C=C(c1ccc(C(=O)O)cc1)c1cc2c(cc1C)C(C)(C)CCC2(C)C", "note": "[Bexarotene] + Oc1cc(-c2nc(-c3ccccc3)[nH]c2-c2ccncc2)ccc1Cl [L779450] (first compound 2 µM, partner dose 0.2 µM)", "cell count": 111}]}]}
